# The list shows a part of the results. Sequences were assembled here from the parent chain. Values near 0.05 are background.
# B1: TEV protease; numbered along this chain (parent)
# chain: MGESLFKGPRDYNPISSSICHLTNESDGHTTSLYGIGFGPFIITNKHLFRRNNGTLVVQSLHGVFKVKDTTTLQQHLVDGRDMIIIRMPKDFPPFPQKLKFREPQREERICLVTTNFQTKSMSSMVSDTSCTFPSGDGIFWKHWIQTKDGQCGSPLVSTRDGFIVGIHSASNFTNTNNYFTSVPKNFMELLTNQEAQQWVSGWRLNADSVLWGGHKVFMVKPEEPFQPVKEATQL
# Variants of: B1
# Experiment: raw area under fraction-flipped curve 0-4 h after induction (AUC4h, not background-subtracted), DNA-recorder readout of cleavage of the substrate (dimensionless); higher = more cleavage of the substrate by the protease variant
# Settings: temperature: 34 °C; time window: 0-4 h after rhamnose induction
# Experimental: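 In vivo DNA recorder in E. coli TOP10(DE3) ΔrhaA at 34 °C. Each TEVp single-site mutant (parent TEVp 0) is paired with a single-site variant of the 7-mer TEVs (canonical ENLYFQ|S). The substrate sits between flexible linkers in a Bxb1-sfGFP-TEVs-SsrA fusion, so cleavage stabilises Bxb1 and speeds flipping of a recombination array, read by NGS. The value is the raw area under the fraction-flipped curve over 0-4 h after rhamnose induction (AUC4h), with ≥20 reads per time point. It is not background-subtracted; inactive controls average about 0.047.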
# 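Also: Bxb1 expression induced with 0.2% (w/v) L-rhamnose at OD600 near 0.5, cultures sampled hourly, flipped fraction per protease–substrate barcode pair counted by paired-end Illumina sequencing.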
Variant,area with substrate ENLAFQS,area with substrate ENLFFQS,area with substrate ENLIFQS,area with substrate ENLKFQS,area with substrate ENLNFQS,area with substrate ENLPFQS,area with substrate ENLSFQS,area with substrate ENLVFQS,area with substrate ENLDFQS,area with substrate ENLEFQS,area with substrate ENLGFQS,area with substrate ENLHFQS,area with substrate ENLQFQS,area with substrate ENLRFQS,area with substrate ENLLFQS,area with substrate ENLWFQS,area with substrate ENLTFQS,area with substrate ENLCFQS,area with substrate ENLMFQS
MGESLFKGPRDYNPISSSICHLTNESDGHTTSLYGIGFGPFIITNKHLFRRNNGTLVVQSLHGVFKVKDTTTLQQHLVDGRDMIIIRMPKDFPPFPQKLKFREPQREERICLVTTNFQTKSMSSMVSDTSCTFPSGDGIFWKHWIQTKHGQCGSPLVSTRDGFIVGIHSASNFTNTNNYFTSVPKNFMELLTNQEAQQWVSGWRLNADSVLWGGHKVFMVKPEEPFQPVKEATQL [D149H],0.054,0.0559,0.0804,0.0729,0.0576,0.0718,0.0598,0.1,,,,,,,,,,,
MGESLFKGPRDYNPISSSICHLTNESDGHTTSLYGIGFGPFIITNKHLFRRNNGTLVVQSLHGVFKVKDTTTLQQHLVDGRDMIIIRMPKDFPPFPQKLKFREPQREERICLVTTNFQTKSMSSMVSDTSCTFPSGDGIFWKHWIQTKDGQCGSPLYSTRDGFIVGIHSASNFTNTNNYFTSVPKNFMELLTNQEAQQWVSGWRLNADSVLWGGHKVFMVKPEEPFQPVKEATQL [V157Y],0.0548,0.0679,0.061,0.0694,0.0487,0.0584,,0.0448,0.0567,0.0578,0.0742,0.0634,0.0583,0.0747,,,,,
MGESLFKGPRDYNPISSSICHLTNESDGHTTSLYGIGFGPFIITNKHLFRRNNGTLVVQSLHGVFKVKDTTTLQQHLVDGRDMIIIRMPKDFPPFPQKLKFREPQREERICLVTTNFQTKSMSSMVSDTSCTFPSGDGIFYKHWIQTKDGQCGSPLVSTRDGFIVGIHSASNFTNTNNYFTSVPKNFMELLTNQEAQQWVSGWRLNADSVLWGGHKVFMVKPEEPFQPVKEATQL [W141Y],0.0718,0.0739,,0.0835,0.0593,,,,0.0581,,,0.0614,,,0.0724,0.0204,,,
MGESLFKGPRDYNPISSSICHLTNESDGHTTSLYGIGFGPFIITNKHLFRRNNGTLVVQSLHGVFKVKDTTTLQQHLVDGRDMIIIRMPKDFPPFPQKLKFREPQREERICLVTTNFQTKSMSSMVSDTSCTFPSGDGIFVKHWIQTKDGQCGSPLVSTRDGFIVGIHSASNFTNTNNYFTSVPKNFMELLTNQEAQQWVSGWRLNADSVLWGGHKVFMVKPEEPFQPVKEATQL [W141V],0.0625,0.0666,,0.039,0.0645,0.0609,0.067,,0.057,0.0535,,,0.0603,0.0542,0.0556,,,,
MGESLFKGPRDYNPISSSICHLTNESDGHTTSLYGIGFGPFIITNKHLFRRNNGTLVVQSLHGVFKVKDTTTLQQHLVDGRDMIIIRMPKDFPPFPQKLKFREPQREERICLVTTNFQTKSMSSMVSDTSCTFPSGDGIFWKHWIQCKDGQCGSPLVSTRDGFIVGIHSASNFTNTNNYFTSVPKNFMELLTNQEAQQWVSGWRLNADSVLWGGHKVFMVKPEEPFQPVKEATQL [T147C],0.0651,,,,,0.0922,0.0663,,,0.0982,,,,,,,,,
MGESLFKGPRDYNPISSSICHLTNESDGHTTSLYGIGFGPFIITNKHLFRRNNGTLVVQSLHGVFKVKDTTTLQQHLVDGRDMIIIRMPKDFPPFPQKLKFREPQREERICLVTTNFQTKSMSSMVSDTSCTFPSGDGIFWKHWIQLKDGQCGSPLVSTRDGFIVGIHSASNFTNTNNYFTSVPKNFMELLTNQEAQQWVSGWRLNADSVLWGGHKVFMVKPEEPFQPVKEATQL [T147L],0.0593,0.0719,0.0527,0.0667,0.0677,0.0439,0.0624,0.0692,0.0743,0.0608,0.094,,0.0784,0.0621,0.0593,0.0686,,,
MGESLFKGPRDYNPISSSICHLTNESDGHTTSLYGIGFGPFIITNKHLFRRNNGTLVVQSLHGVFKVKDTTTLQQHLVDGRDMIIIRMPKDFPPFPQKLKFREPQREERICLVTTNFQTKSMSSMVSDTSCTFPSGDGIFWCHWIQTKDGQCGSPLVSTRDGFIVGIHSASNFTNTNNYFTSVPKNFMELLTNQEAQQWVSGWRLNADSVLWGGHKVFMVKPEEPFQPVKEATQL [K142C],0.0577,0.074,0.0776,,0.0644,0.0586,0.0591,,0.0621,0.0709,0.0619,0.0693,0.0921,0.0979,0.0579,0.0947,,,
MGESLFKGPRDYNPISSSICHLTNESDGHTTSLYGIGFGPFIITNKHLFRRNNGTLVVQSLHGVFKVKDTTTLQQHLVDGRDMIIIRMPKDFPPFPQKLKFREPQREERICLVTTNFQTKSMSSMVSDTSCTFPSGDGIFWQHWIQTKDGQCGSPLVSTRDGFIVGIHSASNFTNTNNYFTSVPKNFMELLTNQEAQQWVSGWRLNADSVLWGGHKVFMVKPEEPFQPVKEATQL [K142Q],0.0623,0.0795,0.0846,0.066,,0.0631,0.0577,,0.074,0.0584,,,0.0496,0.0693,,0.0742,,,
MGESLFKGPRDYNPISSSICHLTNESDGHTTSLYGIGFGPFIITNKHLFRRNNGTLVVQSLHGVFKVKDTTTLQQHLVDGRDMIIIRMPKDFPPFPQKLKFREPQREERICLVTTNFQTKSMSSMVSDTSCTFPSGDGIFWKTWIQTKDGQCGSPLVSTRDGFIVGIHSASNFTNTNNYFTSVPKNFMELLTNQEAQQWVSGWRLNADSVLWGGHKVFMVKPEEPFQPVKEATQL [H143T],0.0635,0.0843,0.0535,0.0684,0.0659,0.0587,0.0713,0.0667,0.056,0.0633,0.0704,,,,0.0608,0.066,0.0597,,
MGESLFKGPRDYNPISSSICHLTNESDGHTTSLYGIGFGPFIITNKHLFRRNNGTLVVQSLHGVFKVKDTTTLQQHLVDGRDMIIIRMPKDFPPFPQKLKFREPQREERICLVTTNFQTKSMSSMVSDTSCTFPSGDGEFWKHWIQTKDGQCGSPLVSTRDGFIVGIHSASNFTNTNNYFTSVPKNFMELLTNQEAQQWVSGWRLNADSVLWGGHKVFMVKPEEPFQPVKEATQL [I139E],0.0562,,0.0766,0.0659,,0.0508,0.0679,,0.0501,0.0621,,0.0431,,,,,,,
MGESLFKGPRDYNPISSSICHLTNESDGHTTSLYGIGFGPFIITNKHLFRRNNGTLVVQSLHGVFKVKDTTTLQQHLVDGRDMIIIRMPKDFPPFPQKLKFREPQREERICLVTTNFQTKSMSSMVSDTSCTFPSGDGIFWKHWIQTDDGQCGSPLVSTRDGFIVGIHSASNFTNTNNYFTSVPKNFMELLTNQEAQQWVSGWRLNADSVLWGGHKVFMVKPEEPFQPVKEATQL [K148D],0.0586,,0.0667,0.0587,0.056,0.0528,0.0659,,0.0628,0.0676,,0.066,0.0691,0.0506,0.0653,0.0657,,0.0763,
MGESLFKGPRDYNPISSSICHLTNESDGHTTSLYGIGFGPFIITNKHLFRRNNGTLVVQSLHGVFKVKDTTTLQQHLVDGRDMIIIRMPKDFPPFPQKLKFREPQREERICLVTTNFQTKSMSSMVSDTSCTFPSGDGIFWKHWIQTYDGQCGSPLVSTRDGFIVGIHSASNFTNTNNYFTSVPKNFMELLTNQEAQQWVSGWRLNADSVLWGGHKVFMVKPEEPFQPVKEATQL [K148Y],0.0551,0.105,,,0.071,0.0664,0.073,,0.0695,0.0547,0.0629,0.0695,,,,0.108,,0.0712,
MGESLFKGPRDYNPISSSICHLTNESDGHTTSLYGIGFGPFIITNKHLFRRNNGTLVVQSLHGVFKVKDTTTLQQHLVDGRDMIIIRMPKDFPPFPQKLKFREPQREERICLVTTNFQTKSMSSMVSDTSCTFPSGDGIHWKHWIQTKDGQCGSPLVSTRDGFIVGIHSASNFTNTNNYFTSVPKNFMELLTNQEAQQWVSGWRLNADSVLWGGHKVFMVKPEEPFQPVKEATQL [F140H],0.0789,0.088,0.0598,0.0683,0.0558,,0.0875,,0.0708,0.0687,,0.0586,0.0657,,,0.0647,,,
MGESLFKGPRDYNPISSSICHLTNESDGHTTSLYGIGFGPFIITNKHLFRRNNGTLVVQSLHGVFKVKDTTTLQQHLVDGRDMIIIRMPKDFPPFPQKLKFREPQREERICLVTTNFQTKSMSSMVSDTSCTFPSGDGIDWKHWIQTKDGQCGSPLVSTRDGFIVGIHSASNFTNTNNYFTSVPKNFMELLTNQEAQQWVSGWRLNADSVLWGGHKVFMVKPEEPFQPVKEATQL [F140D],0.051,0.0572,,0.0579,,,0.0658,0.0417,,,0.0764,0.0621,0.0509,,0.0718,,,0.0629,
MGESLFKGPRDYNPISSSICHLTNESDGHTTSLYGIGFGPFIITNKHLFRRNNGTLVVQSLHGVFKVKDTTTLQQHLVDGRDMIIIRMPKDFPPFPQKLKFREPQREERICLVTTNFQTKSMSSMVSDTSCTFPSGDGIFWKHWIQTKDGQCGSPLVSTREGFIVGIHSASNFTNTNNYFTSVPKNFMELLTNQEAQQWVSGWRLNADSVLWGGHKVFMVKPEEPFQPVKEATQL [D161E],0.0527,0.0747,0.0576,0.0614,0.066,0.0512,0.0556,0.0717,0.0545,0.0481,0.0585,0.073,0.0522,0.0674,0.0664,0.0535,0.0738,0.0644,0.062
MGESLFKGPRDYNPISSSICHLTNESDGHTTSLYGIGFGPFIITNKHLFRRNNGTLVVQSLHGVFKVKDTTTLQQHLVDGRDMIIIRMPKDFPPFPQKLKFREPQREERICLVTTNFQTKSMSSMVSDTSCTFPSGDGIFWKHWIQTKDGQCGSPLVSRRDGFIVGIHSASNFTNTNNYFTSVPKNFMELLTNQEAQQWVSGWRLNADSVLWGGHKVFMVKPEEPFQPVKEATQL [T159R],0.0487,,,,0.0702,,0.0702,,0.0564,,,0.0657,,,0.0589,,0.0499,0.0972,
MGESLFKGPRDYNPISSSICHLTNESDGHTTSLYGIGFGPFIITNKHLFRRNNGTLVVQSLHGVFKVKDTTTLQQHLVDGRDMIIIRMPKDFPPFPQKLKFREPQREERICLVTTNFQTKSMSSMVSDTSCTFPSGDGIFWKHWIQTKDGACGSPLVSTRDGFIVGIHSASNFTNTNNYFTSVPKNFMELLTNQEAQQWVSGWRLNADSVLWGGHKVFMVKPEEPFQPVKEATQL [Q151A],0.0589,0.0755,,,,0.0647,0.0413,0.076,0.0821,,,0.0982,0.0613,0.0609,0.0629,,,0.0614,
MGESLFKGPRDYNPISSSICHLTNESDGHTTSLYGIGFGPFIITNKHLFRRNNGTLVVQSLHGVFKVKDTTTLQQHLVDGRDMIIIRMPKDFPPFPQKLKFREPQREERICLVTTNFQTKSMSSMVSDTSCTFPSGDGIFWKHWIQTKDGRCGSPLVSTRDGFIVGIHSASNFTNTNNYFTSVPKNFMELLTNQEAQQWVSGWRLNADSVLWGGHKVFMVKPEEPFQPVKEATQL [Q151R],0.0647,0.0666,,,0.0584,0.0647,,0.0506,,0.0596,0.0728,0.0685,,0.0663,0.0693,,0.059,,0.0711
MGESLFKGPRDYNPISSSICHLTNESDGHTTSLYGIGFGPFIITNKHLFRRNNGTLVVQSLHGVFKVKDTTTLQQHLVDGRDMIIIRMPKDFPPFPQKLKFREPQREERICLVTTNFQTKSMSSMVSDTSCTFPSGDGIFWKHWIQTKDGQCWSPLVSTRDGFIVGIHSASNFTNTNNYFTSVPKNFMELLTNQEAQQWVSGWRLNADSVLWGGHKVFMVKPEEPFQPVKEATQL [G153W],0.0681,0.059,,,,0.0622,,,0.0656,,,,,,,,,0.0515,

# Reference: the supplement of paper PMC12217912
